Measured values taken from the supplement of paper PMC12015411.

Experiments:
Experiment in all cases: growth relative to the colistin-free well (fraction of colistin-free control); nitroxoline concentration 0 µg/ml; higher = more growth, less inhibition
Escherichia coli BW25113 = tested on: Escherichia coli BW25113
Method: (§1)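 Two-fold colistin steps (0.25-16 µg/ml) in cation-adjusted Mueller-Hinton broth at 37 °C; OD595 at 10.75 h as a fraction of the colistin-free well with the same nitroxoline dose, four biological replicates.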

[1] = tested on: Escherichia coli J53 pKP2442_mcr-1
Method: as §1

[2] = tested on: Escherichia coli J53 pTOPO_mcr-1
Method: as §1

[3] = tested on: Escherichia coli J53 pTOPO
Method: as §1

Escherichia coli J53 = tested on: Escherichia coli J53
Method: as §1

[4] = tested on: Escherichia coli MG1655 pmrA (G53E)
Method: as §1

[5] = tested on: Escherichia coli MG1655 pmrB (V88E)
Method: as §1

Escherichia coli MG1655 = tested on: Escherichia coli MG1655
Method: as §1

[6] = tested on: Klebsiella pneumoniae 2442 mcr-1
Method: as §1

[7] = tested on: Klebsiella pneumoniae CT-R3 pmrB (P95L)
Method: as §1

[8] = tested on: Klebsiella pneumoniae CT-S
Method: as §1

[9] = tested on: Klebsiella pneumoniae LS107
Method: as §1

[10] = tested on: Klebsiella pneumoniae LS53 mgrB (IS1R)
Method: as §1

[11] = tested on: Klebsiella pneumoniae PRZ pKP2442_mcr-1
Method: as §1

[12] = tested on: Klebsiella pneumoniae PRZ pTOPO_mcr-1
Method: as §1

[13] = tested on: Klebsiella pneumoniae PRZ pTOPO
Method: as §1

[14] = tested on: Klebsiella pneumoniae PRZ
Method: as §1

CCC(C)CCCC(=O)N[C@@H](CCN)C(=O)N[C@H](C(=O)N[C@@H](CCN)C(=O)N[C@H]1CCNC(=O)[C@H]([C@@H](C)O)NC(=O)[C@H](CCN)NC(=O)[C@H](CCN)NC(=O)[C@H](CC(C)C)NC(=O)[C@@H](CC(C)C)NC(=O)[C@H](CCN)NC1=O)[C@@H](C)O (some centres undefined) [colistin]
growth
Conditions	0.25 µg/ml	0.5 µg/ml	1 µg/ml	2 µg/ml	4 µg/ml	8 µg/ml	16 µg/ml
Escherichia coli BW25113	1.11	1.1	0.766	0.0041	0.00458	0.00697	0.00775
Escherichia coli J53	0.964	0.758	0	0	0	0.00529	0.00719
Escherichia coli MG1655	1.04	1.18	0.302	0.00371	0.00422	0.00451	0.00909
[1]	1.06	1.13	1.11	1.21	1.05	0	0
[2]	1.05	1.107	0.448	0.0291	0	0	0
[3]	0.9158	0.869	0.000661	0	0.00458	0	0
[4]	1.09	1.02	1.1	1.15	1.18	1.14	0.00597
[5]	0.967	1.07	1.13	1.21	1.18	1.27	0.0488
[6]	1.08	1.06	1.16	0.982	0.984	0.72429	0.00225
[7]	1.1	1.05	1.236	1.184	1.21	1.19	0.897
[8]	1.09	1.15	0.757	0.00283	0.00424	0.00396	0.0109
[9]	1.12	1.02	0.603	0	0.000583	0.00654	0.00233
[10]	1.04	1.13	1.01	1.16	1.11	0.89	0.855
[11]	1.08	1.067	1.04	1.2	1.04	1.02	0
[12]	1	0.996	0.9798	0.93	0.613	0	0
[13]	1	0.969	0.9605	0	0	0	0
[14]	1.006	1.02	0.89	0.00119	0.00296	0.00149	0.00326

Bacterial growth in Mueller-Hinton broth at 37 °C with the drug at the dose given, alone or with nitroxoline. Checkerboards on E. coli BW25113: OD600 at the end of exponential growth as a fraction of no-drug wells. Colistin series: OD595 at 10.75 h as a fraction of the colistin-free well. 1 = full growth, lower = more inhibition. No active / inactive call per well. Checkerboard doses stop near each drug's IC75, and their values pile up at 1, as if capped there. Colistin and gentamicin are mixtures; one drawing stands for each.
